The whole screen tested about 52,000 compounds, of which about 1,700 (3.3%) were called active. No stated cut-off is given here; in the data, active means survival mostly below about 52% (no sharp cut-off); inactive means mostly above about 56%. The list shows a part of the results.
The molecules below were run on Wild type (assay: S. aureus survival, RN4220 and DeltatarO strains – OD600, teichoic acid synthesis inhibitors, primary screen (AID 463173)). Details: S. aureus RN4220 wild type/DeltatarO growth, OD600, 18 h, stronger effect = lower value, screened at 18.75 µg/mL (by protocol).

Structure (SMILES) | survival
Cc1ccc(Cl)cc1N1CCN(C(=O)c2cnc3c(-c4ccc(F)cc4)c(C)nn3c2C)CC1 | inactive: 69%
O=C(Nc1ccccc1C(F)(F)F)C1CCN(c2nnc(-n3cccc3)s2)CC1 | inactive: 113%
CSc1ccc(-c2nc3cc(C)ccn3c2Nc2ccc(C)cc2)cc1 | inactive: 87%
Cc1cccc(-c2nc(S(=O)(=O)c3ccccc3)c(N3CCN(c4ccccc4)CC3)o2)c1 | inactive: 114%
CCc1ccc(NC(=O)C(=O)NCCc2sc(-c3ccc(C)cc3)nc2C)cc1 | inactive: 55%
O=C(CSc1nc2c(c(=O)[nH]1)CCC2)Nc1cc(C(F)(F)F)ccc1Cl | inactive: 85%
NNc1nc2ccccc2c(=O)n1Cc1ccccc1 | inactive: 107%
COc1ccc(NCc2cccn2-c2nnc(N3CCC(C)CC3)s2)c(OC)c1 | inactive: 89%
Cn1ccc2c(OCC(=O)NCc3ccc(F)cc3)cccc2c1=O | inactive: 63%
NC(=O)C1CCN(c2nc(C3CC3)nc3c2nnn3Cc2ccccc2Cl)CC1 | inactive: 108%
CCOC(=O)c1cc(S(=O)(=O)Nc2cc(C)c(Cl)cc2OC)[nH]n1 | inactive: 98%
COc1c(Cl)cc(Cl)cc1C(=O)Nc1cccc2cccnc12 | inactive: 143%
Cc1ccc(C(=O)c2cn(Cc3ccccc3)c3cc4c(cc3c2=O)OCCO4)cc1 | inactive: 147%
CCc1cccc(NC(=O)CSc2nccn2C)c1 | inactive: 77%
CC(=O)c1ccc(NC(=O)CSc2nnc(NC(=O)NC3CCCCC3)s2)cc1 | inactive: 45%
Cc1cccc(Cn2c(CNC(=O)c3ccccc3)nc3ccccc32)c1 | inactive: 84%
CC(C)OCCCNC(=O)c1c2c(nc3ccccc13)C(=O)N(C1CCCCC1)C2 | inactive: 19%
Cc1ccn2c(Nc3ccc(C(C)C)cc3)c(-c3ccsc3)nc2c1 | inactive: 87%
O=C(CCN1CCOCC1)Nc1ccc(Cl)cc1 | inactive: 100%
Cc1cc(C)c(NC(=O)Nc2sc3nc4n(c(=O)c3c2C)CCC(C)CC4)c(C)c1 (stereo unspecified) | inactive: 85%
Cc1cc(C)cc(Nc2ncnc3sc4c(c23)CCCC4)c1 | active: -3%
C=CCn1c(SCC(N)=O)nnc1-c1ccccc1O | inactive: 111%
CCOC(=O)c1cc(-c2ccccc2)n(CC(=O)Nc2cc(Cl)c(OC)cc2OC)c1C | inactive: 128%

Structure (SMILES) | survival
Cc1nn(C(C)C(=O)Nc2cccc(F)c2)c(=O)c2c1sc1ccccc12 (stereo unspecified) | inactive: 111%
Cc1ccc(Nc2c(-c3ccc(N4CCOCC4)cc3)nc3ncccn23)c(C)c1 | inactive: 86%
COCCNC(=O)CCSc1nc(-c2ccc(OC)cc2)cc(C(F)(F)F)n1 | inactive: 84%
CCCCCOc1ccccc1Cn1c(=O)oc2ccc(C)cc21 | active: 15%
O=C(NC1CCCC1)c1ccc(CSc2nc3cccnc3n2Cc2ccccc2F)cc1 | inactive: 32%
CC1CCCN(Cc2c(O)ccc3c(=O)c(-c4ccccc4Cl)c(C(F)(F)F)oc23)C1 (stereo unspecified) | inactive: 65%
O=C(Cn1c(-c2cccs2)cc2ccccc21)NCCCN1CCN(c2ccc(F)cc2)CC1 | inactive: 136%
Cc1ccccc1Nc1ncccc1C(=O)N1CCOCC1 | inactive: 110%
Cc1cc(C)c(NS(=O)(=O)c2ccc3c(c2)NC(=O)CCS3)c(C)c1 | inactive: 60%
O=C(COc1ccc(Cl)cc1)N(Cc1ccco1)c1ccccn1 | inactive: 80%
C#CCN1C(=O)C(O)(CC(=O)c2ccc(OC)c(OC)c2)c2cc(Br)ccc21 (stereo unspecified) | inactive: 111%
Cc1ccc(S(=O)(=O)N(CC(O)Cn2c3ccccc3c3ccccc32)c2cccc(C(=O)N(C)C)c2)cc1 (stereo unspecified) | inactive: 72%
COc1ccc(C2=NN(S(C)(=O)=O)C(c3cn(-c4ccccc4)nc3-c3cccs3)C2)cc1 (stereo unspecified) | inactive: 159%
Cc1ccc(CN2C(=O)c3ccccc3Sc3ccc(C(=O)NCc4ccco4)cc32)cc1 | inactive: 55%
CC1(C)CC(=O)c2cc(C(=O)Nc3ccc(Br)cc3)c(=O)[nH]c2C1 | inactive: 77%
CCN(C(=O)C1CCC(CNS(=O)(=O)c2cccc3nsnc23)CC1)c1ccccc1 (stereo unspecified) | inactive: 76%
COc1ccc(NC(=O)C2=C(C)Nc3ncnn3C2c2ccc(C)o2)cc1 (stereo unspecified) | inactive: 70%
CCN(C(=O)C1CCC(CNS(=O)(=O)c2cccc3nsnc23)CC1)c1cccc(C)c1 (stereo unspecified) | inactive: 86%
Cc1oc2ncnc(N3CCOCC3)c2c1C(=O)N1CCN(c2cccc(C(F)(F)F)c2)CC1 | active: -6%
CCCn1c(=N)c(C(=O)NCc2cccnc2)cc2c(=O)n3cccc(C)c3nc21 | inactive: 77%
CS(=O)(=O)N1CCC(NC(=O)Cc2ccccc2)CC1 | inactive: 117%
COc1cccc(-c2ccnc3c(-c4ccc(F)cc4)c(C)nn23)c1 | inactive: 99%
Cc1ccc(Oc2nc3c(c(=O)n(Cc4ccccc4)c(=O)n3C)n2C)cc1C | inactive: 25%

Structure (SMILES) | survival
O=C(CCCc1ccccc1)Nc1ncn[nH]1 | inactive: 98%
O=C(Cc1ccc(NC(=O)N2CCSc3ncccc32)cc1)NCc1ccccc1 | inactive: 72%
Cc1cc(C)cc(NC(=O)Cn2c(=O)n(C(C)C)c(=O)c3oc4ccccc4c32)c1 | inactive: 85%
Cc1ccc(-c2nc3ccccn3c2Nc2ccc3c(c2)OCCO3)s1 | inactive: 71%
CCOc1ccc(C2N3CC4(C(C)C)CN2CC(C(C)C)(C3)C4=O)cc1OC (stereo unspecified) | inactive: 88%
CCOc1ccccc1NC(=O)N(C)CCc1c(C)nn(CC)c1C | inactive: 129%
COc1ccc(/C=C/C(=O)N2CCC(c3nc4ccccc4o3)CC2)cc1OC | inactive: 78%
COc1ccc(OCC(=O)N2CCN(C(=O)c3cc(OC)c(OC)c(OC)c3)CC2)cc1 | inactive: 96%
Cc1ccc(COc2ccc3oc(-c4ccccc4)c(C(=O)O)c3c2)cc1 | inactive: 54%
Cc1ccc(NC(=O)c2ccc(=O)n(CC(=O)Nc3c(C)cc(C)cc3C)n2)cc1 | inactive: 102%
CCOc1ccc(C2C=C(c3cccc(OC)c3)Nc3nnnn32)cc1 (stereo unspecified) | inactive: 59%
COc1ccc(N=Cc2ccc(Br)s2)cc1 | inactive: 110%
COc1ccc(C(=O)N2CC(=O)Nc3ccc(C)cc3C2c2ccccc2)cc1OC (stereo unspecified) | inactive: 81%
COc1ccc(-n2nc(C(=O)Nc3ccc(Br)cc3C)c3c4ccccc4n(C)c3c2=O)cc1 | inactive: 73%
COc1cccc(C(=O)Nc2ccc(-n3nncc3-c3ccc(Br)cc3)cc2)c1OC | inactive: 143%
Cc1cc(C)n2c(Nc3ccccc3C)c(-c3cccs3)nc2n1 | inactive: 92%
CC(C)(C)c1ccc(C(=O)NNc2ncnc3c2cnn3-c2ccccc2)cc1 | inactive: 82%
CCN(C(=O)Cn1c(SCC(=O)Nc2ccc(OC)cc2)nc2ccccc21)c1cccc(C)c1 | inactive: 134%
O=C(COc1ccccc1)NCC(c1cccs1)S(=O)(=O)c1ccc(Cl)cc1 (stereo unspecified) | inactive: 71%
Cc1c(C2=CCN(S(=O)(=O)c3ccc(Br)cc3)CC2)c2ccccc2n1CC(=O)N1CCCC1 | inactive: 82%
Cc1ccc(CNC(=O)CSc2c3c(nc4ccc(Cl)cc24)CCCC3)cc1 | inactive: 80%
Cc1cnc(NC(=O)C(C)N2CCN(C)CC2)s1 (stereo unspecified) | inactive: 101%
Cc1cccc(Nc2nc(C)nc(N)c2S(=O)(=O)c2ccccc2)c1 | inactive: 82%

Structure (SMILES) | survival
Cc1ccc2nc(-c3ccc(C)c(NC(=O)Cc4ccccc4)c3)oc2c1 | inactive: 77%
Cc1ccccc1CN1CCc2nc(N3CCN(c4ccccn4)CC3)ncc2C1 | inactive: 71%
CCOc1ccc(NC(=O)CN(Cc2ccccc2)S(=O)(=O)c2ccc(Cl)cc2)cc1 | inactive: 92%
COc1ccc2nc3oc(C(=O)Nc4cccc(C(F)(F)F)c4)cc3cc2c1 | inactive: 66%
Cc1cc(C)cc(NS(=O)(=O)c2ccc3c(c2)OCC(C(=O)N2CCCC2)O3)c1 (stereo unspecified) | inactive: 78%
CCNC(=O)c1c(NC(=O)COc2ccc(F)cc2)sc2c1CCCC2 | inactive: 81%
O=C(Nc1ccc(Br)cc1)N1CCC(CN2CCCC2)CC1 | inactive: 119%
CCCC12CN3CC(C)(CN(C1)C3c1ccccc1Cl)C2=O (stereo unspecified) | inactive: 126%
CCc1c(C)sc2c1CCN(C(=O)Nc1ccccc1C(=O)OC)C2c1ccc(F)cc1 (stereo unspecified) | inactive: 79%
Cc1ccccc1NC(=O)CS(=O)(=O)c1cccc2nsnc12 | inactive: 74%
Cc1c(Cl)cccc1NC(=O)c1ccc(NC(=O)N2CCSc3ncccc32)cc1 | inactive: 81%
COc1ccc(NC(=O)CSc2c3c(nc4ccc(Cl)cc24)CCCC3)cc1Cl | inactive: 75%
COc1ccc(N2CCN(CCCNC(=O)c3ccc4nc(CCc5ccccc5)oc4c3)CC2)cc1 | inactive: 113%
O=C(NC1CCCC1)C(c1ccccc1)N(Cc1cccs1)C(=O)Cn1nnc2ccccc21 (stereo unspecified) | inactive: 118%
CCOc1ccc(C2C(C(=O)Nc3ccc(OC)cc3)=C(C)Nc3nc(SCc4ccc(Cl)cc4)nn32)cc1 (stereo unspecified) | inactive: 121%
O=C(c1ccc2c(c1)N(Cc1ccc(F)cc1)CCS2)N1CCN(c2ccccc2)CC1 | inactive: 84%
CCCc1ccc(OCC(=O)Nc2scc(-c3cccs3)c2C(=O)OC)cc1 | inactive: 83%
COc1ccc2c(c1)CC(C(=O)NCCN1CCN(c3cccc(Cl)c3)CC1)CO2 (stereo unspecified) | inactive: 75%
Cc1ccc(CNC(=O)c2sc3nc4n(c(=O)c3c2C)CCCC4)cc1 | inactive: 82%
Cc1nc(Oc2ccccc2C)c2oc3ccccc3c2n1 | inactive: 78%
CN(C(=O)Cn1nc(C(F)(F)F)c2c1CCC2)C1CCCCC1 | inactive: 106%
Cc1ccc(C)c(NC(=O)CCc2nc(-c3ccc(C(C)(C)C)cc3)no2)c1 | inactive: 109%

Reference: PubChem BioAssay AID463173 (ICCB-Longwood Screening Facility, Harvard Medical School, 2010)
